“And” between values parts separate entries of the source, which are not always exact repeats. Equal values may be shown once. About 5,000 (1.2%) of roughly 410,000 compounds were called active. The shares of active, inactive and inconclusive entries below differ from those in the screen. Calls follow the shape of the dose curve; as a rule, active = well fitted inhibition curve with a large enough effect; inconclusive = small, poorly fitted or top-dose-only effect; inactive = no such curve, though single readings can be large or run the other way. Potencies beside an inconclusive call are fits to weak or partial responses and may not hold up.
experiment: qHTS for Inhibitors of TGF-b; details: HepG2 CAGA-GFP TGF-b/SMAD3 reporter, GFP fluorescence, 18 h, TGF-beta stimulated, 500 pg/mL final; series mostly up to 46.1 µM; also: nearly all actives have a fitted effect of over 65% in size
In short: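 First, reporter cells (HEPG2 CAGA-GFP) rested 2 h at 37 degrees C. Next, compounds were pinned in and TGF-beta added to 500 pg/mL final. After 18 h, GFP was imaged per cell and summed per well.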
Potency is read from the fitted curve at half-maximal effect; tags tell the direction and shape of the fitted curve.

| SMILES | Potency |
| --- | --- |
| CCc1ccccc1N(CC)C(=O)C1CCN(c2ncnc3c2nc2n3CCCCC2)CC1 | inconclusive: 20 µM [inhibitor, single point] |
| CCOC(=O)C1=C(C)NC(C)=C(C(=O)OCC)C1c1ccc([N+](=O)[O-])s1 | inconclusive: 12.6 µM [inhibitor, partial curve, poor fit] and inconclusive: 35.5 µM [inhibitor, single point] |
| Nc1ccn([C@@H]2O[C@H](CO)[C@@H](O)[C@H]2O)c(=O)n1 | inactive |
| CC(C)n1c(/N=C/c2ccccc2O)nc2ccccc21 | inactive |
| O=C(NCc1ccc(Cl)cc1)c1ccc(S(=O)(=O)N2CCCCC2)cc1 | inactive |
| C=CCN1C(=O)C(CC(=O)Nc2ccc(OCCC)cc2)N(CCCN2CCN(Cc3ccccc3)CC2)C1=S (centres undefined) | inconclusive: 35.5 µM [inhibitor, single point] |
| CC[C@]12c3[nH]c4cc(-c5ccco5)ccc4c3CCN1C(=O)[C@@H](CC(=O)NCc1ccc(OC)c(OC)c1)C[C@@H]2C(=O)N1CCN(C(=O)c2ccco2)CC1 | inconclusive: 20 µM [inhibitor, partial curve, poor fit] |
| Cc1cc(C)c(NC(=O)CSc2nc3c([nH]c4ccccc43)c(=O)n2C)c(C)c1 | inactive |
| COc1ccc(CNC(=O)c2ccc(Cn3nc(C)c([N+](=O)[O-])c3C)o2)cc1 | inactive |
| Cc1cccnc1C(NC(=O)C1CCN(Cc2ccc(Oc3ccccc3)cc2)CC1)c1ccc(F)cc1 (centres undefined) | inconclusive: 35.5 µM [inhibitor, single point] |
| CCN(c1ccccc1)S(=O)(=O)c1ccc(C(=O)NNC(=O)c2ccccc2F)cc1 | inconclusive: 31.6 µM [inhibitor, single point] |
| CN1C(C(=O)N2CCc3ccccc3C2)=CC(c2ccc(F)cc2)=NS1(=O)=O | inconclusive: 3.98 µM [inhibitor, partial curve, poor fit] |
| O=C(/C=C/c1ccc(Cl)cc1Cl)Nc1cccc(S(=O)(=O)NC2=NCCCCC2)c1 | inconclusive: 35.5 µM [inhibitor, single point] |
| O=C(NNc1ccccc1)NC(Cc1ccccc1)C(=O)O (centres undefined) | inconclusive: 22.4 µM [inhibitor, single point] |
| CN(C)S(=O)(=O)c1ccc(Cl)c(NC(=O)CN2CCC(Cc3ccccc3)CC2)c1 | inconclusive: 0.708 µM [inhibitor, full curve] |
| Oc1ccccc1C1SC(c2ccccc2O)SC(c2ccccc2O)S1 (centres undefined) | inconclusive: 35.5 µM [inhibitor, single point] |
| CC(C)Oc1cccc(C(=O)NC(=S)Nc2cccc(NC(=O)c3ccccc3Cl)c2)c1 | inconclusive: 11.2 µM [inhibitor, single point] |
| N#Cc1ccsc1NC(=O)CN1CCCCCC1 | inactive |
| COc1cccc(CN(C(=O)c2oc3ccccc3c2C)C2CCS(=O)(=O)C2)c1 (centres undefined) | inconclusive: 12.6 µM [inhibitor, single point] |
| C[C@H](CO)N1C[C@H](C)[C@@H](CN(C)C(=O)Nc2ccccc2)Oc2ccc(NC(=O)CCC(F)(F)F)cc2C1=O | inconclusive: 4.47 µM [inhibitor, full curve, poor fit] |

| SMILES | Potency |
| --- | --- |
| COc1ccc(S(=O)(=O)NC(=O)C2(C)CCN2C(=O)C(C)(C)c2ccccc2)cc1 (centres undefined) | inactive |
| COC(=O)C1=C(C)N(c2cc(C)cc(C)c2)/C(=C/c2ccc(O)cc2)C1=O | inconclusive: 15.8 µM [inhibitor, single point] |
| CN(C)C(=O)CCc1ccc2c3c([nH]c2c1)[C@]1(C)[C@@H](C(=O)N2CCCCC2)C[C@H](CC(=O)NCCN2CCOCC2)C(=O)N1CC3 | inactive |
| c1ccc2c(c1)C(=NC1CCCCC1)NC2=NC1CCCCC1 | inconclusive: 35.5 µM [inhibitor, single point] |
| CCOC(=O)c1ccc2nc(NC(=O)c3cccs3)sc2c1 | inactive |
| CCCCCn1c(=O)[nH]c2cc(C(=O)N3CCN(Cc4ccc5c(c4)OCO5)CC3)ccc2c1=O | inactive |
| CCN(c1cccc(C)c1)c1nc2ccsc2c(=O)s1 | inconclusive: 0.562 µM [inhibitor, full curve, poor fit] |
| O=C(C1CCC(=O)N(C2CCCC2)C1)N1CCC(Oc2ccccc2Cl)CC1 (centres undefined) | inconclusive: 11.2 µM [inhibitor, partial curve] |
| CCOC(=O)C1=CC[C@@H](c2cc3ccc(OC)cc3n2C)N(S(=O)(=O)c2ccc(C)cc2)[C@H]1C(=O)OCC | inactive |
| Cc1ccc(-n2nc3c(=O)n(C(C)C(=O)NCc4ccccc4C)nc(C)c3c2C)cc1 (centres undefined) | inconclusive: 4.47 µM [inhibitor, single point] |
| Cc1oc(S(=O)(=O)N2CCOCC2)cc1C(=O)Nc1ccc(Cl)cc1 | inconclusive: 3.55 µM [inhibitor, single point] |
| O=C(c1cc2ccc3cccnc3c2[nH]1)N1CCN(c2cccc(Cl)c2)CC1 | inconclusive: 17.8 µM [inhibitor, single point] |
| O=C(N[C@@H](Cc1ccccc1)C(=O)O)c1ccncc1 | inconclusive: 0.708 µM [inhibitor, full curve] |
| O=C(CSc1ccc(Cl)cc1)N1CCN(c2c(Cl)cccc2[N+](=O)[O-])CC1 | inconclusive: 25.1 µM [inhibitor, single point] |
| COc1ccc(NC(=O)C(C(C)C)N2Cc3ccccc3C2=O)cc1 (centres undefined) | inconclusive: 35.5 µM [inhibitor, partial curve, poor fit] |
| CCOc1ccc(Br)cc1S(=O)(=O)Nc1ccc(C(=O)OCC(=O)Nc2ccc(C#N)cc2)cc1 | inconclusive: 35.5 µM [inhibitor, single point] |
| CSc1nc(Cl)c(Cc2ccc(OC(C)C)cc2)c(N2CCOCC2)n1 | inconclusive: 14.1 µM [inhibitor, single point] |
| COc1ccc(C(=O)NC(=S)NNC(=O)c2ccccc2C)cc1 | inactive |
| CC1=CC(C)(C)N(C(=O)CNC2CCCCC2)c2cc(C)ccc21 | inconclusive: 0.126 µM [inhibitor, full curve, poor fit] |

— PubChem BioAssay AID588855 (National Center for Advancing Translational Sciences (NCATS), 2011)
